# Data reported in the supplement of paper PMC4604168 (melanoma cell lines).
# Some of the results follow. Many values rest on one well or one pass, so single values are uncertain.
# Experiments:
# Assay in all cases: cell count relative to DMSO control; melanoma cells; higher = more viable cells
# Details in all cases: library dose: standard library concentration; 72 h
# [1] = test system: G361
# [2] = test system: IPC-298
# [3] = test system: IST-MEL1
# [4] = test system: LB2518-MEL
# [5] = test system: LOXIMVI
# [6] = test system: MEL-HO
# [7] = test system: MZ2-MEL
# [8] = test system: MeWo
# [9] = test system: RPMI7951
# [10] = test system: RVH-421
# [11] = test system: SkMel28
# [12] = test system: SkMel2
# [13] = test system: SkMel30
# [14] = test system: SkMel5
# [15] = test system: UACC257
# [16] = test system: UACC62
# [17] = test system: WM115
# [18] = test system: WM1716
# [19] = test system: WM1745
# [20] = test system: WM3526
# 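Further: cells treated in 1,536-well plates, then fixed and DAPI-stained, with nuclei counted from automated high-throughput microscope images.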
Structure (SMILES),cell count [1] [%],cell count [2] [%],cell count [3] [%],cell count [4] [%],cell count [5] [%],cell count [6] [%],cell count [7] [%],cell count [8] [%],cell count [9] [%],cell count [10] [%],cell count [11] [%],cell count [12] [%],cell count [13] [%],cell count [14] [%],cell count [15] [%],cell count [16] [%],cell count [17] [%],cell count [18] [%],cell count [19] [%],cell count [20] [%]
"COCC[n+]1c2c(n(Cc3cnccn3)c1C)C(=O)c1ccccc1C2=O + C=CCn1c(=O)c2cnc(Nc3ccc(N4CCN(C)CC4)cc3)nc2n1-c1cccc(C(C)(C)O)n1 [MK1775] (first compound 0.002 µM, partner dose 0.1 µM)",75.1,42,49.2,33.5,40.9,94.4,26.9,41,42.3,118,30.7,44.5,52.9,31.7,22.1,61,55.2,62.3,72.3,37.8
"COCC[n+]1c2c(n(Cc3cnccn3)c1C)C(=O)c1ccccc1C2=O + CO[C@@H]1[C@H](N(C)C(=O)c2ccccc2)C[C@H]2O[C@]1(C)n1c3ccccc3c3c4c(c5c6ccccc6n2c5c31)C(=O)NC4 [Midostaurin] (first compound 0.002 µM, partner dose 0.4 µM)",44.7,20.2,45.2,10.1,54.1,64.6,12.3,21.8,37.6,108,15.3,11,36.2,31.9,26.9,62.8,28.6,38.9,39.1,24.7
"Cn1c(Nc2ccc(C(F)(F)F)cc2)nc2cc(Oc3ccnc(-c4ncc(C(F)(F)F)[nH]4)c3)ccc21 + COc1cc2ncnc(Nc3ccc(Oc4ccccc4)cc3)c2cc1OC [SrcI1] (first compound 0.4 µM, partner dose 10 µM)",24.1,50.2,73.6,33.1,72,64.6,52.6,51.2,38,56.5,31.4,56.2,56.5,36.3,64.7,39.5,24.4,47.1,36.1,26.3
"OCc1c[nH]c2ccccc12 [Indole-3-carbinol] + CCCCCCCCCCCC1=C(O)C(=O)C=C(O)C1=O [Embelin] (first compound 4 µM, partner dose 6 µM)",7.17,46,53.4,27.3,46.6,53.1,52.8,101,87.2,46.5,29.5,52.5,96,85.1,89.1,84.1,85.2,80,–,104
"OCc1c[nH]c2ccccc12 [Indole-3-carbinol] + O=C(Nc1ccccc1)c1cc([N+](=O)[O-])ccc1Cl [GW9662] (first compound 4 µM, partner dose 10 µM)",81.5,97.4,102,90.6,67.4,84.5,90.6,81.1,84.9,74.6,86.1,85.3,86.6,72.6,88.2,70.2,78.4,92.1,–,79.1
"OCc1c[nH]c2ccccc12 [Indole-3-carbinol] + COc1cc2ncnc(Nc3ccc(Oc4ccccc4)cc3)c2cc1OC [SrcI1] (first compound 4 µM, partner dose 10 µM)",70.6,84.6,88.5,138,105,95.5,81.6,88,60.9,108,66.5,95.7,122,79.8,85.7,71.8,63.1,91,–,78.7
"Cn1c(Nc2ccc(C(F)(F)F)cc2)nc2cc(Oc3ccnc(-c4ncc(C(F)(F)F)[nH]4)c3)ccc21 + Cc1cc(N2CCOCC2)cc2[nH]c(-c3c(NC[C@@H](O)c4cccc(Cl)c4)cc[nH]c3=O)nc12 [BMS536924] (first compound 0.4 µM, partner dose 1 µM)",13,47.1,287,25.7,45,67.9,60,62.6,55.8,41.9,20.5,12.5,50.3,35.5,74.3,42,42,71.8,31.6,33.6
"OCc1c[nH]c2ccccc12 [Indole-3-carbinol] + Cn1nnc2c(C(N)=O)ncn2c1=O [temozolomide] (first compound 4 µM, partner dose 10 µM)",103,93.8,76,80.8,56.6,96,89.1,104,74.8,88.9,37.4,91,66.8,73.3,87.5,62.8,66.4,55.2,75.4,86.7
"C#Cc1cccc(Nc2ncnc3cc(OCCOC)c(OCCOC)cc23)c1 [erlotinib] + Cn1cc(/C=C2\C(=O)Nc3cccnc32)c2ccccc21 [GW441756] (first compound 4 µM, partner dose 2 µM)",72.8,70.3,96.5,59.9,77.1,83.5,80.9,72.6,73.9,103,63.4,83.4,61.3,66.4,86.4,48.9,76.2,114,60.9,69.2
"OCc1c[nH]c2ccccc12 [Indole-3-carbinol] + CN(C)S(=O)(=O)c1ccc2c(c1)/C(=C/c1cc3c([nH]1)CCCC3)C(=O)N2 [SU6656] (first compound 4 µM, partner dose 2 µM)",75.1,81.7,87,92.2,86.8,92.7,120,83.7,66.2,89.6,68.6,95.6,70.5,70.9,79.7,60.1,83.1,72.4,69.1,83.6
"COCC[n+]1c2c(n(Cc3cnccn3)c1C)C(=O)c1ccccc1C2=O + COc1ccc2c(c1)CCC1C2CCC2(C)C(NCCCCCCN3C(=O)C=CC3=O)CCC12 [U73122] (first compound 0.002 µM, partner dose 2 µM)",125,126,81.4,154,93.8,113,109,67.5,76.6,119,87.7,110,78.2,81,20.4,72.1,83.4,69.6,111,55.9
"Clc1ccc(Nc2nnc(Cc3ccncc3)c3ccccc23)cc1 [vatalanib] + COc1cc(N2CCC(N3CCN(C)CC3)CC2)ccc1Nc1ncc(Cl)c(Nc2ccccc2S(=O)(=O)C(C)C)n1 [NVP-TAE684] (first compound 10 µM, partner dose 0.4 µM)",80,70.2,73.1,78,76.1,53.8,72.1,45.8,38.5,70.8,72.7,50.1,85.1,72.2,72,81.4,81.9,78,–,53.2
"Clc1ccc(Nc2nnc(Cc3ccncc3)c3ccccc23)cc1 [vatalanib] + O=C(O)c1ccc(-c2c[nH]c3ncc(-c4ccccc4)cc23)cc1C1CCCC1 [GSK650394] (first compound 10 µM, partner dose 0.8 µM)",47.9,67,52,94.3,67.3,63.9,79.6,51.4,61,65.1,74.7,63.3,69.7,58,66.7,89.1,75.5,73.5,28.4,57.9
"Nc1cccc2c1CN(C1CCC(=O)NC1=O)C2=O (stereo unspecified) [lenalidomide] + O=C(Nc1ccccc1)c1cc([N+](=O)[O-])ccc1Cl [GW9662] (first compound 5 µM, partner dose 10 µM)",73.3,106,107,92.7,91,85.4,81.5,91.5,96.6,72.8,62,83.5,87.7,93,83.2,80.9,77,102,97.8,90.3
"C#Cc1cccc(Nc2ncnc3cc(OCCOC)c(OCCOC)cc23)c1 [erlotinib] + COc1cc(N2CCC(N3CCN(C)CC3)CC2)ccc1Nc1ncc(Cl)c(Nc2ccccc2S(=O)(=O)C(C)C)n1 [NVP-TAE684] (first compound 4 µM, partner dose 0.4 µM)",53.7,66.9,94.1,60.8,60.8,79.5,73.7,53.9,61.9,97.4,45.9,44.7,76.2,53,87.8,68.3,63.8,78.1,33,42.8
"Cn1c(Nc2ccc(C(F)(F)F)cc2)nc2cc(Oc3ccnc(-c4ncc(C(F)(F)F)[nH]4)c3)ccc21 + COCC[n+]1c2c(n(Cc3cnccn3)c1C)C(=O)c1ccccc1C2=O [YM155] (first compound 0.4 µM, partner dose 0.002 µM)",26.8,31.7,44.7,13.9,87.9,57.5,25.9,36.7,27.3,291,21.8,29.8,42.1,29.4,22.1,40.7,27.3,55.6,65.7,44.5
